The structures appear in SMILES notation.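 Tested at 5 concentrations; 48 h exposure; 96-well plates; endpoints linearly interpolated, else capped at highest concentration. TGI: total growth inhibition.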 Not every entry of the source has a single result; some have several. This list holds those alone. The source may hold further records. A record mostly stands for its own series of concentrations, not given here; some values may only mark the edge of a range.

Our source for the TGI values is PubChem BioAssay (NCI).

The test system of this experiment is MDA-MB-468 breast. Put plainly: growth of human tumour cells (NCI), 48 h.

Take `COc1ccc2c(c1)nnn1c3ncccc3c(N=O)c21`: the TGI was 141 nM and 15.2 µM.
